# Measurements: the supplement of paper PMC4604168 (melanoma cell lines)
# Some of the results follow. Single values are uncertain, as repeats are few or missing.
# Key:
# Experiment in all cases: cell count relative to DMSO control; melanoma cells; higher = more viable cells
# Settings in all cases: library dose: standard library concentration; 72 h
# G361 = system: G361
# IPC-298 = system: IPC-298
# IST-MEL1 = system: IST-MEL1
# LB2518-MEL = system: LB2518-MEL
# LOXIMVI = system: LOXIMVI
# MEL-HO = system: MEL-HO
# MZ2-MEL = system: MZ2-MEL
# MeWo = system: MeWo
# RPMI7951 = system: RPMI7951
# RVH-421 = system: RVH-421
# 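Also: cells treated in 1,536-well plates, then fixed and DAPI-stained, with nuclei counted from automated high-throughput microscope images.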
SMILES,cell count (G361),cell count (IPC-298),cell count (IST-MEL1),cell count (LB2518-MEL),cell count (LOXIMVI),cell count (MEL-HO),cell count (MZ2-MEL),cell count (MeWo),cell count (RPMI7951),cell count (RVH-421)
"CC1(C)NC(=O)N(c2ccc([N+](=O)[O-])c(C(F)(F)F)c2)C1=O [nilutamide] + NCC(=O)Nc1ccc(-n2nc(C(F)(F)F)cc2-c2ccc3c(ccc4ccccc43)c2)cc1 [OSU03012] (first compound 5 µM, partner dose 5 µM)",75.6%,68.9%,90.7%,88%,82%,87.6%,94.4%,87.4%,105%,98.3%
"O=c1[nH]nc(Sc2ncc([N+](=O)[O-])s2)n1-c1ccc2c(c1)OCCO2 + CC(=O)c1c(C)c2cnc(Nc3ccc(N4CCNCC4)cn3)nc2n(C2CCCC2)c1=O [palbociclib] (first compound 1 µM, partner dose 0.2 µM)",65.3%,68.8%,77.8%,65.9%,82.7%,74.4%,64.9%,55.3%,69%,77.3%
"O=c1[nH]nc(Sc2ncc([N+](=O)[O-])s2)n1-c1ccc2c(c1)OCCO2 + O=C(O)c1ccc(-c2c[nH]c3ncc(-c4ccccc4)cc23)cc1C1CCCC1 [GSK650394] (first compound 1 µM, partner dose 0.8 µM)",85.7%,99.4%,68.1%,132%,79.5%,75.4%,116%,83.6%,82.6%,95.5%
"CC1(C)NC(=O)N(c2ccc([N+](=O)[O-])c(C(F)(F)F)c2)C1=O [nilutamide] + c1cc(-c2cnn3cc(-c4ccc(OCCN5CCCCC5)cc4)cnc23)ccn1 [Dorsomorphin] (first compound 5 µM, partner dose 2 µM)",81.8%,95.5%,92.9%,62.1%,108%,106%,81.2%,75.3%,81.8%,132%
"COc1cc(Nc2ncc(F)c(Nc3ccc4c(n3)NC(=O)C(C)(C)O4)n2)cc(OC)c1OC [Tamatinib] + CC1(C)NC(=O)N(c2ccc([N+](=O)[O-])c(C(F)(F)F)c2)C1=O [nilutamide] (first compound 2 µM, partner dose 5 µM)",76.2%,83.1%,47.1%,104%,20%,70%,77.4%,74.2%,40.1%,82.4%
"O=C(O)c1ccc(-c2c[nH]c3ncc(-c4ccccc4)cc23)cc1C1CCCC1 + O=C(Nc1ccccc1)c1cc([N+](=O)[O-])ccc1Cl [GW9662] (first compound 0.8 µM, partner dose 10 µM)",65.2%,85.5%,76%,97.1%,93.8%,68.3%,74.8%,76.9%,75.1%,80%
"Cn1cncc1[C@@](N)(c1ccc(Cl)cc1)c1ccc2c(c1)c(-c1cccc(Cl)c1)cc(=O)n2C [tipifarnib] + COc1ccc(-c2ccc3c(N4CCOCC4)nc(N4C[C@@H](C)O[C@@H](C)C4)nc3n2)cc1CO [KU0063794] (first compound 0.05 µM, partner dose 0.1 µM)",76.4%,65%,76.1%,85.6%,86.1%,76.2%,90%,70.8%,71.4%,85.7%
"CC1(C)NC(=O)N(c2ccc([N+](=O)[O-])c(C(F)(F)F)c2)C1=O [nilutamide] + OCCn1cc(-c2cnc3nnn(Cc4ccc5ncccc5c4)c3n2)cn1 [PF04217903] (first compound 5 µM, partner dose 5 µM)",83.9%,92.6%,90.9%,78.1%,100%,97%,96.8%,83.3%,66.5%,116%
"C[C@@H]1CCN(C(=O)CC#N)C[C@@H]1N(C)c1ncnc2[nH]ccc12 + O=c1cc(-c2cccc3c2Sc2ccccc2S3)oc(N2CCOCC2)c1 [KU55933] (first compound 5 µM, partner dose 5 µM)",72.9%,94.2%,107%,90.3%,78.7%,83.9%,93.9%,84.7%,71.4%,88.7%
"Cn1cncc1[C@@](N)(c1ccc(Cl)cc1)c1ccc2c(c1)c(-c1cccc(Cl)c1)cc(=O)n2C [tipifarnib] + CN(C)S(=O)(=O)c1ccc2c(c1)/C(=C/c1cc3c([nH]1)CCCC3)C(=O)N2 [SU6656] (first compound 0.05 µM, partner dose 2 µM)",57.1%,56.7%,54.6%,51.7%,90.5%,87.7%,71.8%,75.2%,54.9%,71.3%
"O=c1[nH]nc(Sc2ncc([N+](=O)[O-])s2)n1-c1ccc2c(c1)OCCO2 + O=C(O)[C@@H]1[O][Sb](=[O])([O][Sb]2(=[O])[O][C@H]([C@H](O)CO)[C@H](O)[C@H](C(=O)O)[O]2)[O][C@H]([C@H](O)CO)[C@@H]1O [stibogluconate] (first compound 1 µM, partner dose 10 µM)",101%,106%,110%,94%,74.2%,110%,93.8%,107%,89.1%,105%
"Cn1cncc1[C@@](N)(c1ccc(Cl)cc1)c1ccc2c(c1)c(-c1cccc(Cl)c1)cc(=O)n2C [tipifarnib] + Cn1cc(/C=C2\C(=O)Nc3cccnc32)c2ccccc21 [GW441756] (first compound 0.05 µM, partner dose 2 µM)",78.8%,89.5%,99%,77.1%,120%,93.7%,90.7%,95.7%,76.5%,84.2%
"O=c1[nH]nc(Sc2ncc([N+](=O)[O-])s2)n1-c1ccc2c(c1)OCCO2 + CC(=O)O[C@@]12CO[C@@H]1C[C@H](O)[C@@]1(C)C(=O)[C@H](O)C3=C(C)[C@@H](OC(=O)[C@H](O)[C@@H](NC(=O)OC(C)(C)C)c4ccccc4)C[C@@](O)([C@@H](OC(=O)c4ccccc4)[C@H]21)C3(C)C [Docetaxel] (first compound 1 µM, partner dose 0.0005 µM)",14.5%,36.7%,33.9%,43.2%,74.9%,37.1%,33.2%,22.8%,27.5%,46%
"Cn1cncc1[C@@](N)(c1ccc(Cl)cc1)c1ccc2c(c1)c(-c1cccc(Cl)c1)cc(=O)n2C [tipifarnib] + CCc1ccc(CCOc2ccc(CC3SC(=O)NC3=O)cc2)nc1 [pioglitazone] (first compound 0.05 µM, partner dose 10 µM)",86.2%,105%,95.9%,81.7%,118%,94.8%,111%,109%,112%,89.3%
"O=c1[nH]nc(Sc2ncc([N+](=O)[O-])s2)n1-c1ccc2c(c1)OCCO2 + O=C(O)C(=O)Nc1sc2c(c1C(=O)O)CCNC2 [TCS401] (first compound 1 µM, partner dose 8.33333 µM)",108%,94.9%,99%,90.8%,96.6%,93%,102%,106%,93.6%,104%
"Cn1cncc1[C@@](N)(c1ccc(Cl)cc1)c1ccc2c(c1)c(-c1cccc(Cl)c1)cc(=O)n2C [tipifarnib] + NCC(=O)Nc1ccc(-n2nc(C(F)(F)F)cc2-c2ccc3c(ccc4ccccc43)c2)cc1 [OSU03012] (first compound 0.05 µM, partner dose 5 µM)",79%,62.9%,79%,86.2%,81.2%,78.6%,102%,99%,77.2%,88.5%
"C[C@@H]1CCN(C(=O)CC#N)C[C@@H]1N(C)c1ncnc2[nH]ccc12 + c1cc(-c2cnn3cc(-c4ccc(OCCN5CCCCC5)cc4)cnc23)ccn1 [Dorsomorphin] (first compound 5 µM, partner dose 2 µM)",72.5%,84.8%,84.8%,62.4%,50.2%,94.2%,80%,87.2%,67.7%,121%
"COc1cc(Nc2ncc(F)c(Nc3ccc4c(n3)NC(=O)C(C)(C)O4)n2)cc(OC)c1OC [Tamatinib] + CN(C)S(=O)(=O)c1ccc2c(c1)/C(=C/c1cc3c([nH]1)CCCC3)C(=O)N2 [SU6656] (first compound 2 µM, partner dose 2 µM)",55.4%,57.3%,17.7%,62.5%,26.8%,69.3%,64.4%,54.8%,23.3%,40.3%
"CC1(C)NC(=O)N(c2ccc([N+](=O)[O-])c(C(F)(F)F)c2)C1=O [nilutamide] + COc1cc2ncnc(Nc3ccc(Oc4ccccc4)cc3)c2cc1OC [SrcI1] (first compound 5 µM, partner dose 10 µM)",66.8%,99.4%,91.9%,125%,73%,93.3%,79.6%,81.8%,49.5%,122%
"O=c1[nH]nc(Sc2ncc([N+](=O)[O-])s2)n1-c1ccc2c(c1)OCCO2 + C[C@@H](Oc1cc(-c2cnn(C3CCNCC3)c2)cnc1N)c1c(Cl)ccc(F)c1Cl [Crizotinib] (first compound 1 µM, partner dose 1 µM)",91.3%,108%,88.7%,77.2%,130%,122%,102%,88.6%,98%,80.5%
"C[C@@H]1CCN(C(=O)CC#N)C[C@@H]1N(C)c1ncnc2[nH]ccc12 + CCc1ccc(CCOc2ccc(CC3SC(=O)NC3=O)cc2)nc1 [pioglitazone] (first compound 5 µM, partner dose 10 µM)",93%,92.9%,101%,97.9%,203%,97.4%,105%,83.1%,133%,127%
"O=C(O)c1ccc(-c2c[nH]c3ncc(-c4ccccc4)cc23)cc1C1CCCC1 + CC(C)CCN1c2nc(Nc3cc(F)c(O)c(F)c3)ncc2N(C)C(=O)C1C [BID1870] (first compound 0.8 µM, partner dose 1 µM)",40.6%,73.7%,49.4%,88.6%,104%,53.3%,91.5%,79.8%,61.6%,66.1%
